{"source": "patent US20220273713A1", "about": "“METHOD OF INHIBITING OR ACTIVATING GAMMA DELTA T CELLS” (The University of Melbourne, priority 2019, published 2022)", "test_system": "in vitro pre-expanded CD3+Vδ2+ γδ T cells", "experiment": "HMBPP or anti-CD3/anti-CD28 activation of purified in vitro-expanded Vδ2+ T cells ± neutralizing anti-BTN2A1 mAb", "assay_type": "cell-based, human", "details": "HMBPP 0.5 ng/ml, 10 μg/ml neutralizing anti-BTN2A1 mAb, no APCs", "description": "CD25 expression was determined by flow cytometry, and IFN-γ concentration was determined by cytometric bead array (BD Bioscience) as per manufacturer instructions.", "data": [{"molecule": "clone 227: neutralizing anti-BTN2A1 mAb; VH SEQ ID NO: 108, VL SEQ ID NO: 109 (antibody, V domains shown, amino acid sequence of clone 227 VH; amino acid sequence of clone 227 VL) VH: EVQLLESGGGLVQPGGSLRLSCAASGFTFSIYSMWWVRQAPGKGLEWVSRISPSGGGTYYADSVKGRFTISRDNSKNTLYLQMNSLRAEDTAVYYCTTPTVTTDYWGQGTLVTVSS VL: [about 100 residues not spelt out]", "values": [{"measurement": "HMBPP-induced activation (CD25 upregulation, IFN-γ production)", "result": "failed to upregulate CD25 and produce IFN-γ"}]}]}
